Part of at least one peptide drawing is inferred or uncertain, most often the ends. *1 amine or outer side, *2 acyl side, *3 side chain or, on linkers, in order; H or OH if unused. Where a SMILES comes first, the peptide text is derived from it. Bridges are numbered along the chain shown (N, C = ends). Roman numbers before positions name the chains, in order. [ ]: non-standard residue; d: D form. The star is where a group is joined. CO(CH2)2(OCH2CH2)17CO = O=C(CCOCCOCCOCCOCCOCCOCCOCCOCCOCCOCCOCCOCCOCCOCCOCCOCCOCCC(=O)[*:2])[*:1]; PEG12 = NCCOCCOCCOCCOCCOCCOCCOCCOCCOCCOCCOCCOCCC(=O)O; Phe(4-guanidino) = N=C(N)Nc1ccc(C[C@H](N)C(=O)O)cc1; hTyr = N[C@@H](CCc1ccc(O)cc1)C(=O)O; h4Pal = N[C@@H](CCc1ccncc1)C(=O)O; Tle = CC(C)(C)[C@H](N)C(=O)O; Carboxymethyl = O=C(O)C*
System: ERK
Experiment: pERK AlphaLISA assay (ERK phosphorylation, p-Erk1/2 Thr202/Tyr204) in HUVEC lysate
Type: cell-based, human
Conditions: HUVEC lysate of the pVEGFR assay; % activity, maximum VEGF165a signal = 100%, unstimulated = 0%; peptide 10, 100 nM (dimer structures 2-41)
Experimental: To evaluate the intracellular signaling activation ability of the VEGFR-2 agonist peptides of the present invention, ERK phosphorylation was verified. Using the lysate employed in the pVEGFR AlphaLISA assay, the assay was performed according to the protocol of the AlphaLISA SureFire Ultra p-Erk1/2 (Thr202/Tyr204) Assay Kit (PerkinElmer). Signal detection was performed using a SpectraMax Paradigm multimode microplate reader (Molecular Devices). The obtained signals were analyzed using GraphPad Prism, and % activity was calculated with the maximum signal induced by VEGF165a set as 100% and the unstimulated control as 0%.
The VEGF165a concentration was evaluated at five points (0.08, 0.31, 1.25, 5, 20 nM) using 1/4-fold dilutions starting from 20 nM to determine the maximum value (100%). Peptide concentrations tested were: 3.2, 16, 80 nM for dimer structure […], 100 nM for dimer structures numbers 2-41; and 1.25, 5, 20 nM for dimer structures numbers 42-57.
For % activity, peptides showing ≥50% activity at 3.2 nM were designated 1-A, those showing ≥50% activity at 16 nM were designated 1-B, those showing ≥50% activity at 80 nM were designated 1-C, and those showing ≥1% but <50% activity at 80 nM were designated 1-D.
Peptides showing 50% or more activity at 10 nM were designated 2-A, those showing 50% or more activity at 100 nM were designated 2-B, and those showing 1% or more but less than 50% activity at 100 nM were designated 2-C.
Peptides showing 50% or more activity at 1.25 nM were designated 3-A, those showing 50% or more activity at 5 nM were designated 3-B, those showing 50% or more activity at 20 nM were designated 3-C, and those showing 1% or more but less than 50% activity at 20 nM were designated 3-D.

Row | SMILES | pERK Assay Results
1 | CC(C)C[C@@H]1NC(=O)[C@H](CC(=O)O)NC(=O)[C@H](CC(=O)O)NC(=O)[C@H](CCCCNC(=O)CCOCCOCCOCCOCCOCCOCCOCCOCCOCCOCCOCCOCCOCCOCCOCCOCCOCCC(=O)NCCCC[C@@H]2NC(=O)[C@H](C(C)C)NC(=O)[C@H](CC(=O)O)NC(=O)[C@H](C(C)(C)C)NC(=O)[C@H](Cc3c[nH]c4ccccc34)NC(=O)[C@H](Cc3c[nH]c4ccccc34)NC(=O)CSC[C@@H](C(=O)NCC(N)=O)NC(=O)[C@H](CC(=O)O)NC(=O)[C@H](C(C)C)NC(=O)[C@H](Cc3ccc(NC(=N)N)cc3)NC(=O)[C@H](Cc3ccc(O)cc3)NC(=O)[C@H](CC(C)C)NC(=O)[C@H](CC(=O)O)NC(=O)[C@H](CC(=O)O)NC2=O)NC(=O)[C@H](C(C)C)NC(=O)[C@H](CC(=O)O)NC(=O)[C@H](C(C)(C)C)NC(=O)[C@H](Cc2c[nH]c3ccccc23)NC(=O)[C@H](Cc2c[nH]c3ccccc23)NC(=O)CSC[C@@H](C(=O)NCC(N)=O)NC(=O)[C@H](CC(=O)O)NC(=O)[C@H](C(C)C)NC(=O)[C@H](Cc2ccc(NC(=N)N)cc2)NC(=O)[C@H](Cc2ccc(O)cc2)NC1=O [Dimer Structure No. 43] (I: {CH2CO}-WW[Tle]DVKDDLY[Phe(4-guanidino)]VDCG-NH2 / II: {CH2CO}-WW[Tle]DVKDDLY[Phe(4-guanidino)]VDCG-NH2; linker I:6-II:6 via CO(CH2)2(OCH2CH2)17CO; thioether I:N-I:14, II:N-II:14) | 2-A (50% or more activity at 10 nM)
2 | CC(C)C[C@@H]1NC(=O)[C@H](CC(=O)O)NC(=O)CNC(=O)[C@H](CCC(N)=O)NC(=O)[C@H](C(C)C)NC(=O)[C@H](CC(=O)O)NC(=O)[C@H](C(C)C)NC(=O)[C@H](Cc2c[nH]c3ccccc23)NC(=O)[C@H](Cc2c[nH]c3ccccc23)NC(=O)CSC[C@@H](C(=O)NCC(=O)NCCOCCOCCOCCOCCOCCOCCOCCOCCOCCOCCOCCOCCC(=O)NCCCC[C@H](NC(=O)CCOCCOCCOCCOCCOCCOCCOCCOCCOCCOCCOCCOCCNC(=O)CNC(=O)[C@@H]2CSCC(=O)N[C@@H](Cc3c[nH]c4ccccc34)C(=O)N[C@@H](Cc3c[nH]c4ccccc34)C(=O)N[C@@H](C(C)C)C(=O)N[C@@H](CC(=O)O)C(=O)N[C@@H](C(C)C)C(=O)N[C@@H](CCC(N)=O)C(=O)NCC(=O)N[C@@H](CC(=O)O)C(=O)N[C@@H](CC(C)C)C(=O)N[C@@H](Cc3ccc(O)cc3)C(=O)N[C@@H](Cc3ccccc3)C(=O)N[C@@H](C(C)C)C(=O)N[C@@H](CC(=O)O)C(=O)N2)C(N)=O)NC(=O)[C@H](CC(=O)O)NC(=O)[C@H](C(C)C)NC(=O)[C@H](Cc2ccccc2)NC(=O)[C@H](Cc2ccc(O)cc2)NC1=O [compound 7] (I: {CH2CO}-WWVDVQGDLYFVDCG[PEG12]K-NH2 / II: {CH2CO}-WWVDVQGDLYFVDCG[PEG12]; amide I:17-II:C; thioether I:N-I:14, II:N-II:14) | 2-B (50% or more activity at 100 nM)
3 | CC(C)C[C@@H]1NC(=O)[C@H](CC(=O)O)NC(=O)[C@H](CC(=O)O)NC(=O)[C@H](CCC(N)=O)NC(=O)[C@H](C(C)C)NC(=O)[C@H](CC(=O)O)NC(=O)[C@H](C(C)C)NC(=O)[C@H](Cc2c[nH]c3ccccc23)NC(=O)[C@H](Cc2c[nH]c3ccccc23)NC(=O)CSC[C@@H](C(=O)NCC(=O)NCCOCCOCCOCCOCCOCCOCCOCCOCCOCCOCCOCCOCCC(=O)NCCCC[C@H](NC(=O)CCOCCOCCOCCOCCOCCOCCOCCOCCOCCOCCOCCOCCNC(=O)CNC(=O)[C@@H]2CSCC(=O)N[C@@H](Cc3c[nH]c4ccccc34)C(=O)N[C@@H](Cc3c[nH]c4ccccc34)C(=O)N[C@@H](C(C)C)C(=O)N[C@@H](CC(=O)O)C(=O)N[C@@H](C(C)C)C(=O)N[C@@H](CCC(N)=O)C(=O)N[C@@H](CC(=O)O)C(=O)N[C@@H](CC(=O)O)C(=O)N[C@@H](CC(C)C)C(=O)N[C@@H](Cc3ccc(O)cc3)C(=O)N[C@@H](Cc3ccccc3)C(=O)N[C@@H](C(C)C)C(=O)N[C@@H](CO)C(=O)N2)C(N)=O)NC(=O)[C@H](CO)NC(=O)[C@H](C(C)C)NC(=O)[C@H](Cc2ccccc2)NC(=O)[C@H](Cc2ccc(O)cc2)NC1=O [compound 11] (I: {CH2CO}-WWVDVQDDLYFVSCG[PEG12]K-NH2 / II: {CH2CO}-WWVDVQDDLYFVSCG[PEG12]; amide I:17-II:C; thioether I:N-I:14, II:N-II:14) | 2-C (1% or more but less than 50% activity at 100 nM)
4 | CC(C)C[C@@H]1NC(=O)[C@H](CC(=O)O)NC(=O)[C@H](CC(=O)O)NC(=O)[C@H](CCCCNC(=O)CCOCCOCCOCCOCCOCCOCCOCCOCCOCCOCCOCCOCCOCCOCCOCCOCCOCCC(=O)NCCCC[C@@H]2NC(=O)[C@H](C(C)C)NC(=O)[C@H](CC(=O)O)NC(=O)[C@H](C(C)(C)C)NC(=O)[C@H](Cc3c[nH]c4ccccc34)NC(=O)[C@H](Cc3ccc(OCC(=O)O)cc3)NC(=O)CSC[C@@H](C(=O)NCC(N)=O)NC(=O)[C@H](CC(=O)O)NC(=O)[C@H](CCc3ccc(O)cc3)NC(=O)[C@H](Cc3ccccc3)NC(=O)[C@H](Cc3ccc(O)cc3)NC(=O)[C@H](CC(C)C)NC(=O)[C@H](CC(=O)O)NC(=O)[C@H](CC(=O)O)NC2=O)NC(=O)[C@H](C(C)C)NC(=O)[C@H](CC(=O)O)NC(=O)[C@H](C(C)(C)C)NC(=O)[C@H](Cc2c[nH]c3ccccc23)NC(=O)[C@H](Cc2ccc(OCC(=O)O)cc2)NC(=O)CSC[C@@H](C(=O)NCC(N)=O)NC(=O)[C@H](CC(=O)O)NC(=O)[C@H](CCc2ccc(O)cc2)NC(=O)[C@H](Cc2ccccc2)NC(=O)[C@H](Cc2ccc(O)cc2)NC1=O [compound 24] (I: {CH2CO}-Y(Carboxymethyl)W[Tle]DVKDDLYF[hTyr]DCG-NH2 / II: {CH2CO}-Y(Carboxymethyl)W[Tle]DVKDDLYF[hTyr]DCG-NH2; linker I:6-II:6 via CO(CH2)2(OCH2CH2)17CO; thioether I:N-I:14, II:N-II:14) | 2-A (50% or more activity at 10 nM)
5 | CC(C)C[C@@H]1NC(=O)[C@H](CC(=O)O)NC(=O)[C@H](CC(=O)O)NC(=O)[C@H](CCCCNC(=O)CCOCCOCCOCCOCCOCCOCCOCCOCCOCCOCCOCCOCCOCCOCCOCCOCCOCCC(=O)NCCCC[C@@H]2NC(=O)[C@H](C(C)C)NC(=O)[C@H](CCC(N)=O)NC(=O)[C@H](C(C)(C)C)NC(=O)[C@H](Cc3c[nH]c4ccccc34)NC(=O)[C@H](Cc3c[nH]c4ccccc34)NC(=O)CSC[C@@H](C(=O)NCC(N)=O)NC(=O)[C@H](CC(=O)O)NC(=O)[C@H](CCc3ccc(O)cc3)NC(=O)[C@H](Cc3ccccc3)NC(=O)[C@H](Cc3ccc(O)cc3)NC(=O)[C@H](CC(C)C)NC(=O)[C@H](CC(=O)O)NC(=O)[C@H](CC(=O)O)NC2=O)NC(=O)[C@H](C(C)C)NC(=O)[C@H](CCC(N)=O)NC(=O)[C@H](C(C)(C)C)NC(=O)[C@H](Cc2c[nH]c3ccccc23)NC(=O)[C@H](Cc2c[nH]c3ccccc23)NC(=O)CSC[C@@H](C(=O)NCC(N)=O)NC(=O)[C@H](CC(=O)O)NC(=O)[C@H](CCc2ccc(O)cc2)NC(=O)[C@H](Cc2ccccc2)NC(=O)[C@H](Cc2ccc(O)cc2)NC1=O [compound 26] (I: {CH2CO}-WW[Tle]QVKDDLYF[hTyr]DCG-NH2 / II: {CH2CO}-WW[Tle]QVKDDLYF[hTyr]DCG-NH2; linker I:6-II:6 via CO(CH2)2(OCH2CH2)17CO; thioether I:N-I:14, II:N-II:14) | 2-B (50% or more activity at 100 nM)
6 | CC(C)C[C@@H]1NC(=O)[C@H](CC(=O)O)NC(=O)[C@H](CC(=O)O)NC(=O)[C@H](CCCCNC(=O)CCOCCOCCOCCOCCOCCOCCOCCOCCOCCOCCOCCOCCOCCOCCOCCOCCOCCC(=O)NCCCC[C@@H]2NC(=O)[C@H](C(C)C)NC(=O)[C@H](CC(=O)O)NC(=O)[C@H](C(C)(C)C)NC(=O)[C@H](Cc3c[nH]c4ccccc34)NC(=O)[C@H](Cc3c[nH]c4ccccc34)NC(=O)CSC[C@@H](C(=O)NCC(N)=O)NC(=O)[C@H](CC(=O)O)NC(=O)[C@H](CCc3ccncc3)NC(=O)[C@H](Cc3ccccc3)NC(=O)[C@H](Cc3ccc(O)cc3)NC(=O)[C@H](CC(C)C)NC(=O)[C@H](CC(=O)O)NC(=O)[C@H](CC(=O)O)NC2=O)NC(=O)[C@H](C(C)C)NC(=O)[C@H](CC(=O)O)NC(=O)[C@H](C(C)(C)C)NC(=O)[C@H](Cc2c[nH]c3ccccc23)NC(=O)[C@H](Cc2c[nH]c3ccccc23)NC(=O)CSC[C@@H](C(=O)NCC(N)=O)NC(=O)[C@H](CC(=O)O)NC(=O)[C@H](CCc2ccncc2)NC(=O)[C@H](Cc2ccccc2)NC(=O)[C@H](Cc2ccc(O)cc2)NC1=O [compound 32] (I: {CH2CO}-WW[Tle]DVKDDLYF[h4Pal]DCG-NH2 / II: {CH2CO}-WW[Tle]DVKDDLYF[h4Pal]DCG-NH2; linker I:6-II:6 via CO(CH2)2(OCH2CH2)17CO; thioether I:N-I:14, II:N-II:14) | 2-A (50% or more activity at 10 nM)

Reference: EP4748847A1, “PEPTIDE COMPLEX HAVING VEGFR -2 AGONIST ACTIVITY” (Peptidream Inc, priority 2023, dated 2025)
